Results reported in publication PMC4336329 (PLoS ONE, 2015).
In all, about 310,000 compounds went through this assay and about 2,200 (0.71%) showed an effect of 50% or more. Effects have a minus sign here. This is one part of the list.

Each compound was assayed against human ether-à-go-go-related gene (hERG) potassium channel (human, UniProt Q12809) (assay: primary screen, population patch clamp on CHO cells stably expressing hERG).
human ether-à-go-go-related gene (hERG) potassium channel, sequence (Q12809 whole entry, looked up): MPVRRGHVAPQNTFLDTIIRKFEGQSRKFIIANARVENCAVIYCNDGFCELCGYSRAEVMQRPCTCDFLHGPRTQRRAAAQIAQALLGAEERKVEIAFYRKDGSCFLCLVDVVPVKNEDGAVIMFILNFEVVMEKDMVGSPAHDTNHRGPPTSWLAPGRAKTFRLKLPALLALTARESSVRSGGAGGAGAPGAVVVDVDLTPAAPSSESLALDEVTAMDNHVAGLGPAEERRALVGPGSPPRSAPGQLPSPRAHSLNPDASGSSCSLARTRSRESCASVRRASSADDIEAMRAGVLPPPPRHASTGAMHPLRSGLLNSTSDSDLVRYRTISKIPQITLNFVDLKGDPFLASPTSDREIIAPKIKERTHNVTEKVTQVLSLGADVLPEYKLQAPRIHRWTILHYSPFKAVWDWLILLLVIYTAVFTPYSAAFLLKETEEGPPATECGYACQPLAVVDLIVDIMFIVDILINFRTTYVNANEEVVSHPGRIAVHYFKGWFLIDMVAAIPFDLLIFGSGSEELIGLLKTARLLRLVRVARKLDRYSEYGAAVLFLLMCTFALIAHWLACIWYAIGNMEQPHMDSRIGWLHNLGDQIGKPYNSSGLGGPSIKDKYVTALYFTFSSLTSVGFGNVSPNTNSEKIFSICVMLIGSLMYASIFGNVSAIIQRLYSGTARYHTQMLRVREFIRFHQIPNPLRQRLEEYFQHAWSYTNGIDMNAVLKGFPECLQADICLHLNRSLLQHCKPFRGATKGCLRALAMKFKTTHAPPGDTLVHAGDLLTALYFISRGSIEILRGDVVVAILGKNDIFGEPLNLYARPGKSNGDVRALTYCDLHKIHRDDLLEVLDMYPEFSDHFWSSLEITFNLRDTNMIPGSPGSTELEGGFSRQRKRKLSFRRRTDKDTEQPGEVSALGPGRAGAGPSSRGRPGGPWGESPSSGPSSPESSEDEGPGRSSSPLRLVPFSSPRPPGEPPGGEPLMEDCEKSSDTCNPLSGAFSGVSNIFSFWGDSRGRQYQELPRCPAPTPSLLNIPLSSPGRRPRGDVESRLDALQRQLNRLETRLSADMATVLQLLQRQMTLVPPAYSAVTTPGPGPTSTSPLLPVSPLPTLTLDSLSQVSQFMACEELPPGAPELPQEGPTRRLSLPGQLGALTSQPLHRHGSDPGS

Structure (SMILES)	hERG current change (%, negative = inhibition) at 1uM
C/C=C\C(=O)Nc1cccc(C2=NOC3(C2)C[C@@H](C(N)=O)N(C(=O)c2ccc(Cl)cc2)C3)c1 (some centres unmarked)	6.99%
N#Cc1c(N)n(CCOC(=O)c2cccc([N+](=O)[O-])c2)c2nc3ccccc3nc12	13.1%
CC(OC(=O)c1oc2ccccc2c1COc1ccccc1)C(N)=O (centres unmarked)	14.7%
CC(NC(=O)C1CCN(S(=O)(=O)c2ccc(Br)s2)CC1)c1ccccc1 (centres unmarked)	3.34%
O=C(/C=C/c1ccc([N+](=O)[O-])cc1)c1cccs1	8.1%
Cc1c(C)n(Cc2ccccc2)c2ncnc(N)c12	8.97%
C=CCOc1ccc(C2C(C(=O)c3cccs3)=C(O)C(=O)N2c2nnc(C)s2)cc1 (centres unmarked)	14%
CC(C)C(NC(=O)C12CC3CC(CC(C3)C1)C2)C(=O)NC1=NCCS1 (centres unmarked)	3.24%
O=C(CSc1nnc(NC(=O)C2CC(=O)N(c3ccc(F)cc3)C2)s1)NC1CCCC1 (centres unmarked)	6.91%
COc1ccccc1N/N=C/c1ccc2c(c1)OCO2	-3.44%
O=C(CN1C2CCC1CC(NC(=O)C1CC1)C2)NCc1ccccc1 (centres unmarked)	11.4%
C[C@H](NC(=O)c1nc[nH]c1C(=O)N[C@@H](Cc1ccccc1)C(=O)OC(C)(C)C)C(=O)OCc1ccccc1	8.97%
CCC(CC)c1nnc(NC(=O)CN2C(=O)c3ccccc3C2=O)s1	6.24%
O=C(CCCOc1ccccc1)NC1CCCc2ccccc21 (centres unmarked)	-4.31%
CCN1CCN(c2oc(/C=C/c3ccccc3)nc2C#N)CC1	-26.4%
Cc1ccc(-c2noc(Cn3cc(S(=O)(=O)N4CCCC4)ccc3=O)n2)cc1	3.51%
COC(=O)c1ccc(NC(=O)C2CC(=O)OC2c2ccccc2)cc1 (centres unmarked)	17.5%
O=C(NCc1ccccc1)C1=C[C@@H](c2ccc(Br)cc2)C[C@@H](OCc2ccc(CO)cc2)O1	-1.02%
O=C(C1CCC1)N1CCCc2cc(S(=O)(=O)N3CCN(c4ccccc4)CC3)ccc21	5.32%
CCCNC(=O)C1(CC2CC(c3ccccc3)=NO2)CCN(C(=O)C2CCCC2)CC1 (centres unmarked)	-12%
CC(C)Cc1nnc(NC(=O)Cc2ccc([N+](=O)[O-])cc2)s1	5.45%
Cc1ccccc1NC(=O)Cn1c(=O)n(C)c2ccccc21	1.73%
CN1CCCC(OC(=O)CCCCC(=O)OC2CCCN(C)C2)C1.Cl (centres unmarked)	8.53%
